# Where “and” joins values, the source holds several entries; their conditions need not be identical. Identical values can stand only once. The shares of active, inactive and inconclusive entries below differ from those in the screen. For some assays here: Where the call is inconclusive, the potency comes from a doubtful curve fit. Calls of active or inactive are those of the source. Unless noted, calls follow the shape of the dose curve; as a rule, active = well fitted curve in the direction sought with a large enough effect; inconclusive = small, poorly fitted or top-dose-only effect, or another doubt; inactive = no such curve, though single readings can be large; an effect the other way counts as inactive or inconclusive.
# Tests used:
# [1] = Cell Viability - NIH 3T3 (AID 541); conditions: NIH 3T3 cell viability, qHTS; activity change, negative = cytotoxicity: at 92.2 µM (top of the series);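 also: cells exposed to compound for 40 hours; plate controls were DMSO alone for no effect and tamoxifen positive control for full effect; nearly all actives have a fitted effect of over 25% in size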
# Outline: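 Intracellular ATP (CellTiter-Glo luminescence, 20 min at room temperature) measured after 40 hr compound exposure at 37 °C of 1000 NIH 3T3 mouse fibroblasts/well in complete medium; AC50 derived by Hill-equation modelling of qHTS concentration-response curves.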
# [2] = biological target: Glucocorticoid receptor (Homo sapiens) (UniProt P04150); experiment: qHTS assay for small molecule agonists of glucocorticoid receptor signaling (AID 588532; active = well fitted curve in the direction sought with a large enough effect in the signal ratio, with a control signal flat; inconclusive = small, poorly fitted or top-dose-only effect, or a change in a side signal; inactive = no such curve, though single readings can be large or run the other way; the % refers to the signal ratio;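 also: 100% = dexamethasone at 0.1 µM and 0% = DMSO only wells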); conditions: HeLa MMTV-bla, beta-lactamase ratio, agonist, 18 h; activation: stronger effect = higher value, percent of dexamethasone control, DMSO zero
# Sequence of UniProt P04150 (P04150 whole entry, looked up): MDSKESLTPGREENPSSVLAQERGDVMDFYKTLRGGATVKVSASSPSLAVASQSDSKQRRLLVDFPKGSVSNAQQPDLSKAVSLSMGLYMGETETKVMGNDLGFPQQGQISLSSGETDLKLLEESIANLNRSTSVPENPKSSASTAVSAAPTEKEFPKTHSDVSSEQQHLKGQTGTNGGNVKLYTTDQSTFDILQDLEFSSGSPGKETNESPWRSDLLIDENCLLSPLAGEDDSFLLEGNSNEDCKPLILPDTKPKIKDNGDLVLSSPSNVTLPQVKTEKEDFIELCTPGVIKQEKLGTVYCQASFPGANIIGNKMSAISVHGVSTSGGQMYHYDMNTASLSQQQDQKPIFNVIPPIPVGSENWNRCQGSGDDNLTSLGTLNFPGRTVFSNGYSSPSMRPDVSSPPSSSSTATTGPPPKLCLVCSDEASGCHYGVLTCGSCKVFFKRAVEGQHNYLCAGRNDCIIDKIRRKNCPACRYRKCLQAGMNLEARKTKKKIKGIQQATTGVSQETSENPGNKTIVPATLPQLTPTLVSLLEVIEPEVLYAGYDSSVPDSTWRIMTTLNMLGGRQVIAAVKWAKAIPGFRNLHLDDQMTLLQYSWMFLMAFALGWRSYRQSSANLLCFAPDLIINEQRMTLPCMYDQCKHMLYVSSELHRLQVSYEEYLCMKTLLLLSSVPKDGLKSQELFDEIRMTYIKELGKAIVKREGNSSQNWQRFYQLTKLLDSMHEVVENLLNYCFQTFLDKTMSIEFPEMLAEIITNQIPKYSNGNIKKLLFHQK
# Outline: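 Stimulation of a glucocorticoid response element-driven beta-lactamase gene was measured in HeLa cells. Responses were scaled between DMSO basal and 0.1 uM dexamethasone, then fitted for half-maximal stimulation.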
# [3] = biological target: Peroxisome proliferator-activated receptor delta (Homo sapiens) (UniProt Q03181); experiment: qHTS assay for small molecule antagonists of peroxisome proliferator-activated receptor delta signaling (AID 588535; active = well fitted inhibition curve with a large enough effect in the signal ratio, with a control signal flat, not every such curve was filed as active; inconclusive = small, poorly fitted or top-dose-only effect, or effect the other way, or a change in a side signal; inactive = no such curve, though single readings can be large or run the other way; the % refers to the signal ratio; also: potency is read from the fitted curve at half-maximal effect); conditions: HEK293T PPARd-UAS-bla, beta-lactamase FRET ratio, 18 h; activity change, negative = inhibition: at 76.7 µM (top of the series) unless noted
# Sequence of UniProt Q03181 (Q03181 whole entry, looked up): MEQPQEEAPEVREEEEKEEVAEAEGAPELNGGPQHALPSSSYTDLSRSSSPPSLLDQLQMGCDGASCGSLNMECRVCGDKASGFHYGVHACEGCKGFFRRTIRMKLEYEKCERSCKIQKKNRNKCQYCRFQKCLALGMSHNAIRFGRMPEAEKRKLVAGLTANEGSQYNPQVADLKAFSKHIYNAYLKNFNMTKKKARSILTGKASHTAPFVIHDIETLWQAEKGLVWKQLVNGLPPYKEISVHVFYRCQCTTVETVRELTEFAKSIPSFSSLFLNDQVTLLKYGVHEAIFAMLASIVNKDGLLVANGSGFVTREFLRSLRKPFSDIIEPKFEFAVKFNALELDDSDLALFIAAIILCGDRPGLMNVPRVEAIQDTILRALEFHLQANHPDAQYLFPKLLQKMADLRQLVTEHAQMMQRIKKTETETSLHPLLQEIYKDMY
# Outline: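 Inhibition of PPAR-delta response element-driven beta-lactamase expression is measured in HEK293T cells exposed to a compound titration series for 18 hrs at 37 C. Half-maximal inhibition comes from Hill equation fitting.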
# [4] = biological target: Peroxisome proliferator-activated receptor gamma (Homo sapiens) (UniProt P37231); experiment: qHTS assay for small molecule agonists of peroxisome proliferator-activated receptor gamma signaling (AID 588536; active = well fitted curve in the direction sought with a large enough effect in the signal ratio, with a control signal flat, not every such curve was filed as active; inconclusive = small, poorly fitted or top-dose-only effect, or effect the other way, or a change in a side signal; inactive = no such curve, though single readings can be large or run the other way; the % refers to the signal ratio;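 also: 0% = DMSO basal wells and 100% = rosiglitazone at 2 µM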); conditions: HEK293 PPARg-UAS-bla, beta-lactamase ratio, 16 h; activation: at 76.7 µM (top of the series), percent of rosiglitazone response, DMSO as zero
# Outline: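 This is an agonist-mode beta-lactamase reporter assay in HEK293 PPAR-gamma-UAS-bla cells with 1% charcoal/dextran FBS. Compound titrations ran 16 h at 37 C before CCF4 detection. EC50 and efficacy are Hill fits scaled to 2 uM rosiglitazone (100%) and DMSO basal.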
# [5] = biological target: Peroxisome proliferator-activated receptor gamma (Homo sapiens) (UniProt P37231); experiment: qHTS assay for small molecule antagonists of peroxisome proliferator-activated receptor gamma signaling (AID 588537; active = well fitted inhibition curve with a large enough effect in the signal ratio, with a control signal flat, not every such curve was filed as active; inconclusive = small, poorly fitted or top-dose-only effect, or effect the other way, or a change in a side signal; the % refers to the signal ratio;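 also: reporter cells co-stimulated with 50 nM rosiglitazone agonist during compound treatment; % of control where 0% means no effect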); conditions: HEK293 PPARg-UAS-bla, beta-lactamase ratio, antagonist mode; activity, negative = inhibition: at 76.8 µM (top of the series) unless noted
# Outline: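 Compounds are tested as concentration series for inhibition of rosiglitazone-driven (50 nM) reporter expression in GeneBLAzer PPAR-gamma-UAS-bla HEK293 cells. After 16 h at 37 C, CCF4 substrate is added for 2 h at room temperature and blue/green fluorescence is measured.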
# [6] = qHTS assay for small molecule agonists of the antioxidant response element (ARE) signaling pathway (AID 651741; active = well fitted activation curve with a large enough effect in the signal ratio; inconclusive = small, poorly fitted or top-dose-only effect, or effect the other way, or a change in a side signal; the % refers to the signal ratio; also: potency is read from the fitted curve at half-maximal effect; as to activation: % of control where 0% means no effect); conditions: HepG2 ARE-bla reporter, beta-lactamase FRET ratio, 16 h
# Outline: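 Reporter: beta-lactamase under ARE, stably in HepG2. Exposure: 16 h, 37 C, compounds delivered in DMSO by pin tool after 5 h cell preincubation. Readout: FRET substrate fluorescence after 2 h at RT.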
# [7] = qHTS assay for small molecule activators of the p53 signaling pathway (AID 651743; active = well fitted activation curve with a large enough effect in the signal ratio, not every such curve was filed as active; inconclusive = small, poorly fitted or top-dose-only effect, or a change in a side signal; the % refers to the signal ratio; also: % of control where 0% means no effect); conditions: HCT-116 p53RE-bla, beta-lactamase FRET ratio, 16 h; activation: stronger effect = higher value
# Outline: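 Agonist-mode quantitative HTS in HCT-116 cells carrying a p53-response-element beta-lactamase reporter; 16 h compound treatment at 37 C, then FRET substrate loading for 2 h at room temperature and fluorescence read.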
# [8] = biological target: Tumor necrosis factor (Homo sapiens) (UniProt P01375); experiment: qHTS assay to identify small molecules that stimulate Tumor Necrosis Factor-alpha (TNF-alpha) secretion (AID 651757; active = well fitted curve in the direction sought with a large enough effect in the signal ratio; inconclusive = small, poorly fitted or top-dose-only effect, or a change in a side signal; inactive = no such curve, though single readings can be large or run the other way; the % refers to the signal ratio; also: 0% is about no effect); conditions: Human cells, HTRF 665/615 ratio; activation (TNF-alpha secretion): at 92.2 µM (top of the series)
# Sequence of UniProt P01375 (P01375 whole entry, looked up): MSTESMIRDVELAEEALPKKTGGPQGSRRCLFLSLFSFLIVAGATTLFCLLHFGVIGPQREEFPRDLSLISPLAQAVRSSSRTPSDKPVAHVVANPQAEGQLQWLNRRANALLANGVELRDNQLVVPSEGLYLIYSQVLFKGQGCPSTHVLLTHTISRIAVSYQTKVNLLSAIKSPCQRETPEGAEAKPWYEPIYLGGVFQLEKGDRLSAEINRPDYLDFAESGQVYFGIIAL
# Outline: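 Secreted TNF-alpha quantified by TR-FRET sandwich of two labeled anti-TNF-alpha antibodies, incubated 3 hr at room temperature. Preceded by 17 hr, 37 C compound treatment of THP-1 cells at 3000 cells/well.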
# [9] = qHTS assay to identify small molecules that stimulate interleukin-8 (IL-8) secretion (AID 651758; active = well fitted activation curve with a large enough effect in the signal ratio; inconclusive = small, poorly fitted or top-dose-only effect, or effect the other way, or a change in a side signal; the % refers to the signal ratio; also: 0% is about no effect); conditions: HTRF ratio (665/615); activation: at 92.2 µM (top of the series)
# Outline: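 Quantitative HTS in THP-1 monocytic cells at 2000 cells per well, with 16 hrs compound incubation at 37 C. IL-8 in the medium was then quantified by HTRF immunoassay, read after 1-3 hrs at room temperature.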
# [10] = qHTS assay for small molecule agonists of the antioxidant response element (ARE) signaling pathway measured by Nrf2-dependant transcriptional activity (AID 720636; active = well fitted curve in the direction sought with a large enough effect in the repeat runs; inconclusive = weak or mixed curves; inactive = no such curve, though single readings can be large; an effect the other way counts as inactive or inconclusive; also: potency is read from the fitted curve at half-maximal effect)
# Outline: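 HepG2 ARE-luc reporter line, 1% dialyzed FBS; 6 hr attachment at 37 C, compound pinned in, 16 hr at 37 C/5% CO2; ONE-Glo, 30 min RT, luminescence read.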
# [11] = Cell Viability - HUV-EC-C (AID 542);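 also: cells exposed to compound for 40 hours; % is scaled to controls: 0 for no effect and ±100 for the full control effect; nearly all actives have a fitted effect of over 35% in size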
# Outline: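 CellTiter-Glo luminescence measured ATP loss in HUV-EC-C cells (1000/well) after 40 hr compound exposure at 37 °C, in complete culture medium. Concentration-response data were Hill-fitted to give AC50.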
# [12] = Cell Viability - LYMP2-013 (AID 970);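 also: 0% = DMSO only and full inhibition = tetraoctylammonium bromide control; nearly all actives have a fitted effect of over 55% in size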
# Outline: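 qHTS cytotoxicity: ATP-dependent luminescence (CellTiter-Glo, 30 min room temperature) read after 24 h compound exposure at 37 C of 2500 LYMP2-013 lymphoblastoid cells per well. Concentration-response fitted with Hill equation to give AC50.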
# [13] = Cell Viability - LYMP2-016 (AID 984);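 also: cells exposed to compound for 24 hours at 37 °C; % is scaled to controls: 0 for no effect and ±100 for the full control effect; nearly all actives have a fitted effect of over 55% in size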
# Outline: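 Human lymphoblastoid cells (LYMP2-016), 2500/well in complete medium, preincubated 5 hr at 37 C, then compound-treated 24 hr at 37 C. Intracellular ATP read by CellTiter-Glo luminescence after 30 min at room temperature; AC50 from Hill-equation concentration-response fits.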
# [14] = biological target: Estrogen receptor (Homo sapiens) (UniProt P03372); experiment: qHTS assay for small molecule antagonists of estrogen receptor alpha signaling (AID 588513; active = well fitted curve in the direction sought with a large enough effect in the signal ratio, with a control signal flat, not every such curve was filed as active; inconclusive = small, poorly fitted or top-dose-only effect, or effect the other way, or a change in a side signal; inactive = no such curve, though single readings can be large or run the other way; the % refers to the signal ratio; also: % is scaled to controls: 0 for no effect and ±100 for the full control effect); conditions: ER-alpha-UAS-bla HEK293, beta-lactamase ratio, antagonist mode; activity, negative = inhibition: at 76.9 µM (top of the series) unless noted
# Sequence of UniProt P03372 (P03372 whole entry, looked up): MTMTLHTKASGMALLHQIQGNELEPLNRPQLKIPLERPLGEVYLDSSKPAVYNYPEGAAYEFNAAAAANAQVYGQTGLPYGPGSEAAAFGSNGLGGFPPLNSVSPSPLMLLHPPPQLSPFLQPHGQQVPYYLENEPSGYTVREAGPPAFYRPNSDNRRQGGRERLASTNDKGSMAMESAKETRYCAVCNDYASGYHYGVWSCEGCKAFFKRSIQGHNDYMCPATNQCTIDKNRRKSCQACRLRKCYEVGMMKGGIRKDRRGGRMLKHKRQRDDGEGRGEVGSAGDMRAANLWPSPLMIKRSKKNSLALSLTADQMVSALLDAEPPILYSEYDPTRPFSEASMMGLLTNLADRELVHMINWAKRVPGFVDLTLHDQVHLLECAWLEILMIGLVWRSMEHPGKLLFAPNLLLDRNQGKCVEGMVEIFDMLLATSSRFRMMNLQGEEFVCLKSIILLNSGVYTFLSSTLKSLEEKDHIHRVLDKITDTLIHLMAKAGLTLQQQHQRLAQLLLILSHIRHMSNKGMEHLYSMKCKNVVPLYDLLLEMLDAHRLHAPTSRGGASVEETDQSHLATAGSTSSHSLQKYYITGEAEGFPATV
# Outline: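 ER-alpha-UAS-bla GripTite HEK 293 cells in medium with 2% charcoal/dextran-treated FBS were preincubated 4 h at 37 C, dosed with compound (1:2 titration), stimulated with 0.5nM 17-beta-estradiol for 18 h, then read by CCF4 beta-lactamase fluorescence.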
# [15] = biological target: Estrogen receptor (Homo sapiens) (UniProt P03372); experiment: qHTS assay for small molecule agonists of estrogen receptor alpha signaling (AID 588514; calls by dose curve;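 also: 0% = vehicle only and 100% = reference agonist; nearly all actives have a fitted effect of over 70% in size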); conditions: ER-alpha-UAS-bla HEK293, beta-lactamase ratio, 18 h; activation: at 76.8 µM (top of the series), percent of full estradiol response, vehicle zero unless noted
# Outline: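 EC50 and efficacy came from Hill fits of beta-lactamase reporter signal (CCF4 dye, 2 h at room temperature) scaled between DMSO and 20 nM 17-beta-estradiol. Agonist mode: HEK293 ER-alpha-UAS-bla cells in charcoal/dextran-stripped serum medium, 18 h compound exposure at 37 C.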
# [16] = biological target: Peroxisome proliferator-activated receptor delta (Homo sapiens) (UniProt Q03181); experiment: qHTS assay for small molecule agonists of peroxisome proliferator-activated receptor delta signaling (AID 588534; calls by dose curve;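 also: 0% = DMSO basal wells and 100% = positive control agonist at 10 µM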); conditions: HEK293T PPARdelta-UAS-bla, beta-lactamase ratio, 18 h; activation: at 76.7 µM (top of the series) unless noted
# Outline: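 Agonist-mode beta-lactamase reporter readout (CCF4 dye, 2 h at RT) after 18 h at 37 °C exposure to a titration; Hill-equation fitting gave EC50 and maximal response.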
# [17] = biological target: Thyroid hormone receptor beta (Homo sapiens) (UniProt P10828); experiment: qHTS assay for small molecule antagonists of thyroid hormone receptor beta signaling (AID 588547; active = well fitted inhibition curve with a large enough effect in the signal ratio, with a control signal flat, not every such curve was filed as active; inconclusive = small, poorly fitted or top-dose-only effect, or effect the other way, or a change in a side signal; the % refers to the signal ratio;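 also: cells stimulated with 0.4 nM T3 agonist during compound exposure; % is scaled to controls: 0 for no effect and ±100 for the full control effect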); conditions: TR-UAS-bla HEK293, beta-lactamase ratio, antagonist mode, 18 h
# Sequence of UniProt P10828 (P10828 whole entry, looked up): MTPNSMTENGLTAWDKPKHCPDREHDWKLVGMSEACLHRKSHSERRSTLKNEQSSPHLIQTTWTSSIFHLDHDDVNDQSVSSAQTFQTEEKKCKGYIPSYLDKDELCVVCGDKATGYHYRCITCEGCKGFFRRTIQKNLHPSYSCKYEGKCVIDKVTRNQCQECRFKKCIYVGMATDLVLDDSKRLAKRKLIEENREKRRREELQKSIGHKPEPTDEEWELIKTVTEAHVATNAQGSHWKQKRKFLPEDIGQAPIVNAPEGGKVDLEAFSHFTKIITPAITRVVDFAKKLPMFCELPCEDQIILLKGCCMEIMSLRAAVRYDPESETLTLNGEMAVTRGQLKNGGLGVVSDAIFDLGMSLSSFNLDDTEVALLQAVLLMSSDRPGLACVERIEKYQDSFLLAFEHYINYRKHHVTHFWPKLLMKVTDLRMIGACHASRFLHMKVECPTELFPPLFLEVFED
# Outline: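 TR-UAS-bla GripTite HEK293 cells in 2% charcoal/dextran FBS medium were preincubated 4 h at 37 C, given compound (0.59 nM to 92 uM) plus 0.4 nM T3 (final) for 18 h, then CCF4 for 2 h at RT; Hill fit gave IC50.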
# [18] = Cell Viability - H-4-II-E (AID 543);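 also: cells exposed to compound for 40 hours; % is scaled to controls: 0 for no effect and ±100 for the full control effect; nearly all actives have a fitted effect of over 35% in size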
# Outline: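 CellTiter-Glo luminescence (intracellular ATP) measured after 40 h compound exposure at 37 °C in H-4-II-E rat hepatoma cells seeded at 1500/well. Values are AC50s fitted with the standard Hill equation.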
# [19] = biological target: Retinoic acid receptor RXR-alpha (Homo sapiens) (UniProt P19793); experiment: qHTS assay for small molecule agonists of retinoid X receptor alpha signaling (AID 588544; calls by dose curve;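 also: 0% = DMSO basal wells and 100% = reference agonist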); conditions: HEK293T RXRa-UAS-bla, beta-lactamase reporter, 18 h; activation: at 76.7 µM (top of the series)
# Sequence of UniProt P19793 (P19793 whole entry, looked up): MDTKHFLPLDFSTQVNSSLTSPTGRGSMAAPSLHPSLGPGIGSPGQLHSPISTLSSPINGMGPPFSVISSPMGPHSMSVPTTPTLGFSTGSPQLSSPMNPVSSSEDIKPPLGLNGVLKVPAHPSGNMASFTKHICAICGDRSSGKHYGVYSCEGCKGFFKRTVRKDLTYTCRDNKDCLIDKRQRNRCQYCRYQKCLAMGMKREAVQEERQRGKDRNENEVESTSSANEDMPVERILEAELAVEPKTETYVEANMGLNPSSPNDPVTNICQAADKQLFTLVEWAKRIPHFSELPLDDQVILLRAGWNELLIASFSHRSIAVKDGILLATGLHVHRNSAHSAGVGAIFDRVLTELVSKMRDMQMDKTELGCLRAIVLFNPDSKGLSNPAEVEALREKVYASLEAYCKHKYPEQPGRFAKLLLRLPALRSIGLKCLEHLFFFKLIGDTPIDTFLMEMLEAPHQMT
# [20] = activation: at 96 µM (top of the series) unless noted
# Tags tell the direction and shape of the fitted curve or compound fluorescence and quenching.
smiles,measurement,setting,value
Nc1cc(Cl)c([N+](=O)[O-])cc1O,"activity change, negative = cytotoxicity",[1],inconclusive: -41.8%
same,activation,[2],inactive: -1.56%
same,Potency,[3],"inconclusive: 0.0316 µM [inhibitor, full curve, poor fit]"
same,activation,[4],inconclusive: -3.36%
same,"activity, negative = inhibition",[5],inconclusive: -15.9%
same,Potency,[6]; [20],active: 8.41 µM
same,activation,[7],inactive: -0.259%
same,activation (TNF-alpha secretion),[8],inconclusive: 0.368%
same,activation,[9],inconclusive: -8.34%
same,Potency,[10],"inconclusive: 21.1 µM [activator, full curve, poor fit]"
Nc1cccc(C(F)(F)F)c1,Potency,[11],inactive
same,Potency,[12],inactive
same,Potency,[13],inactive
same,"activity, negative = inhibition",[14],inconclusive: -25.7%
same,activation,[15],inconclusive: 25%
same,Potency,[16],inactive
same,activity change % (negative = inhibition),[17],inactive: 5.58% and inconclusive: -10.1%
same,activation,[6]; [20],inconclusive: -11.3%
same,activation,[6]; at 96 µM (top of the series),inactive: -1.67%
same,Potency,[9],inactive
CC(=O)c1nccs1,Potency,[18],inactive
same,Potency,[15],inactive
same,"activity, negative = inhibition",[5],inconclusive: 3.79%
same,Potency,[19],inactive
same,Potency,[6]; [20],inactive
same,Potency,[9],inactive

# Reference: PubChem BioAssay (NCATS)
